Measured values: PubChem BioAssay AID662 (National Center for Advancing Translational Sciences (NCATS), 2007)
Screen size: about 71,000 compounds; about 1,800 (2.5%) were called active. The shares of active, inactive and inconclusive entries below differ from those in the screen. Calls follow the shape of the dose curve; as a rule, active = well fitted activation curve with a large enough effect in the signal ratio, with a control signal flat (not every such curve was filed as active); inconclusive = small, poorly fitted or top-dose-only effect, or effect the other way, or a change in a side signal; inactive = flat fitted curve, though single readings scatter; the % refers to the signal ratio. Where the call is inconclusive, the potency comes from a doubtful curve fit.
Potency is read from the fitted curve at half-maximal effect; tags tell the direction and shape of the fitted curve.

Test: Cell signaling CRE-BLA (Fsk stim); as to activity change, negative = inhibition: % of control where 0% means no effect
Conditions: CHO CRE-bla reporter (cAMP response element driving beta-lactamase), forskolin EC10, beta-lactamase ratio; activity change, negative = inhibition: at 38.2 µM (top of the series) unless noted
How it was run: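 CRE-bla CHO reporter cells treated with compound titration plus EC10 NKH 477 (water-soluble forskolin), incubated 3 h at 37 °C; CCF4 loading 2 h at room temperature, 460/530 nm emission ratio read, AC50 values derived for positive or negative modulators.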
For `O=C(Nc1sc2c(c1C(=O)NCc1cccnc1)CCCC2)c1ccco1`, the Potency was inconclusive: 1.58 µM [rising, partial curve]. For `COc1ccc(OC)c(NS(=O)(=O)c2ccc(NC(=O)C3COc4ccccc4O3)cc2)c1` (centres undefined), the activity change, negative = inhibition was inconclusive: 23.6% [at 7.6 µM]. With `O=C(c1cccs1)N1CCN(C(=O)c2ccco2)c2ccccc2C1` the Potency was inconclusive: 15.8 µM [falling, single point]. For `COc1cccc(Cn2c(=O)c(-c3ccccc3)nc3cncnc32)c1`, the Potency was inconclusive: 12.6 µM [rising, partial curve]. With `O=C(O)CCC(=O)NC1CCCCC1NC(=O)CCC(=O)O` (centres undefined) the activity change, negative = inhibition was inconclusive: -5.81% [at 7.6 µM]. With `Cc1cc(N2CCCCC2)nc(SCC(=O)c2ccccc2)n1` the activity change, negative = inhibition was “inactive”. In the case of `Oc1[nH]c2ccccc2c1C1=NCCCC1`, the Potency is reported as active: 15.8 µM. For `Cc1cnc(CNc2nc(-c3ccc(N(C)C)cc3)nc3ccccc23)cn1`, the Potency was inconclusive: 15.8 µM [rising, partial curve]. With `COc1cccc2[nH]c3c(N4CCCC(C)C4)ncnc3c12` (centres undefined) the Potency was inconclusive: 6.31 µM [rising, partial curve]. With `O=C(OCn1nnc2ccccc2c1=O)c1cccs1` the activity change, negative = inhibition was inconclusive: -18.4%. With `CCc1nc2ccccc2n(CCOCCOCCn2c(=O)c(CC)nc3ccccc32)c1=O` the activity change, negative = inhibition was inconclusive: 28.2%. With `O=C(Oc1ccc2c(c1)OCO2)c1cccs1` the Potency was inconclusive: 3.98 µM [falling, single point]. With `CCOC(=O)c1ccc(N=Cc2nc3ccccc3n2C)cc1` the activity change, negative = inhibition was “inactive”. With `CCCCCCN1Cc2ccccc2C1` the activity change, negative = inhibition was inconclusive: 11.2%. In the case of `COc1cccc(Cn2c(=O)cnc3cnc(N4CCN(C)CC4)nc32)c1`, the activity change, negative = inhibition is reported as inconclusive: 7.93%. In the case of `COC(=O)[C@@]1(Cc2ccc(F)cc2)[C@H]2c3cc(C(=O)N(C)C)n(Cc4ccc(OC(F)(F)F)cc4)c3C[C@H]2CN1C(=O)c1ccccc1`, the activity change, negative = inhibition is reported as inconclusive: 12.9%. With `CC(=O)O[C@H]1C(=O)[C@]2(C)[C@H]([C@H](OC(=O)c3ccccc3)[C@@]3(O)C[C@H](OC(=O)[C@@H](O)[C@@H](NC(=O)c4ccccc4)c4ccccc4)C(C)=C1C3(C)C)[C@]1(OC(C)=O)CO[C@@H]1C[C@@H]2O` the activity change, negative = inhibition was inconclusive: -18.2%. For `O=C(c1cnc(N2CCN(c3ncccn3)CC2)c2ccccc12)N1CCN(c2ncccn2)CC1`, the activity change, negative = inhibition was “inactive”. In the case of `CN(C)c1nc(N)nc(CSc2n[nH]c(-c3ccccc3)n2)n1`, the Potency is reported as active: 1.58 µM. With `Cc1cc(NCCCn2ccnc2)n2ncc(-c3ccccc3)c2n1` the Potency was inconclusive: 7.94 µM [rising, partial curve]. With `CCOC(=O)c1oc2ccccc2c1NC(=O)c1ccccc1OC` the Potency was active: 2 µM. For `Cc1cccc(/N=C/c2c(O)n(-c3cc(Cl)ccc3N3CCOCC3)c(=O)c3ccccc23)n1`, the activity change, negative = inhibition was “inactive”. With `CC1Cc2ccccc2N1S(=O)(=O)c1ccc2c(c1)n(C)c(=O)c(=O)n2C` (centres undefined) the Potency was inconclusive: 0.158 µM [falling, full curve]. In the case of `Cc1ccc(CNC(=O)Nc2ccccc2)cc1`, the Potency is reported as inconclusive: 0.1 µM [falling, single point]. In the case of `CC(=O)c1ccc(Nc2cc(C)nc3nc(C)nn23)cc1`, the Potency is reported as inconclusive: 10 µM [rising, partial curve]. In the case of `Cc1ccccc1Cn1c(-c2cncs2)nc2ccccc21`, the Potency is reported as inconclusive: 10 µM [rising, partial curve]. With `CCOC(=O)c1[nH]c(=O)[nH]c1CSc1nc(C)cc(C)n1` the activity change, negative = inhibition was inconclusive: 28.1% [at 7.6 µM]. In the case of `COC(=O)C1=C(N)N(c2ccc(F)cc2)C2=C(C(=O)CCC2)C1c1ccc2c(c1)OCO2` (centres undefined), the activity change, negative = inhibition is reported as inconclusive: 28.8%. For `CCOc1ccc(C(=O)Nc2c3c(nn2-c2ccc(F)cc2)CS(=O)C3)cc1` (centres undefined), the activity change, negative = inhibition was “inactive”. For `O=C(COc1ccc2ccccc2c1CN1CCOCC1)N1CCc2ccccc21`, the activity change, negative = inhibition was inconclusive: -24.8%. With `CCCC(c1nnnn1C(C)(C)CC)N(Cc1ccco1)Cc1cc2ccc(OC)cc2[nH]c1=O` (centres undefined) the activity change, negative = inhibition was inconclusive: 25.4%. In the case of `COCC(=O)Nc1nnc(-c2cccs2)s1`, the activity change, negative = inhibition is reported as “inactive”. In the case of `Cc1cc2n(n1)C(c1sccc1C)Nc1c(C)cccc1-2` (centres undefined), the activity change, negative = inhibition is reported as “inactive”. With `CN(CC(=O)Nc1ccc(Cl)cc1)S(=O)(=O)c1cccc2cccnc12` the activity change, negative = inhibition was inconclusive: -26%. For `CCOc1ccccc1C(=O)NCC(=O)OCC(=O)N1C(C)CCCC1C` (centres undefined), the Potency was inconclusive: 15.8 µM [rising, single point]. In the case of `CCNc1ncc2nc(CCc3ccccc3)c(=O)n(Cc3ccc(F)cc3)c2n1`, the Potency is reported as inconclusive: 3.98 µM [rising, single point]. In the case of `CCC(=O)N1CCc2cc(S(=O)(=O)NC(C(=O)N3CCc4ccccc4C3)C(C)C)ccc21` (centres undefined), the activity change, negative = inhibition is reported as inconclusive: -0.646%. For `O=C1c2c(O)ccc([N+](=O)[O-])c2C(=O)c2c([N+](=O)[O-])ccc(O)c21`, the activity change, negative = inhibition was inconclusive: -5.64%. In the case of `Cc1c(C(N)=O)sc(N)c1C(=O)OC(C)C`, the activity change, negative = inhibition is reported as “inactive”. In the case of `CC1CCN(CC[S-])CC1.O.O.[Cl][Pt]`, the activity change, negative = inhibition is reported as inactive: -13.7% [at 7.6 µM]. In the case of `Cc1oc2nc(SCCCC(=O)NCCO)nc(N)c2c1C`, the activity change, negative = inhibition is reported as inconclusive: 16.6%. For `C[C@H](O)[C@H](O)[C@@H](O)c1cnc2nc(N)[nH]c(=O)c2n1`, the activity change, negative = inhibition was “inactive”. For `O=C(Nc1sc2c(c1C(=O)NCC1CCCO1)CCCC2)c1cccs1` (centres undefined), the Potency was inconclusive: 5.01 µM [rising, single point]. With `O=C(CCC(=O)N1CCc2ccccc2C1)N1CCN(S(=O)(=O)c2ccccc2)CC1` the activity change, negative = inhibition was inconclusive: -25%. In the case of `CCOC(=O)N1CCN(C(=O)CN(c2cccc(C(F)(F)F)c2)S(C)(=O)=O)CC1`, the activity change, negative = inhibition is reported as “inactive”. With `Cc1nn(-c2ccccc2)c(CC(C)(C)C(=O)O)c1C(=O)O` the activity change, negative = inhibition was inconclusive: 7.1%. In the case of `c1ccc(CN2CCN(c3nc(-c4ccccc4)nc(-n4ccnc4)n3)CC2)cc1`, the activity change, negative = inhibition is reported as inconclusive: 26%. For `O=C(Cc1c[nH]c2ccccc12)NCc1ccc2c(c1)OCO2`, the activity change, negative = inhibition was inconclusive: -24.1%. For `CS(=O)(=O)N(CC(=O)O)Cc1ccccc1`, the activity change, negative = inhibition was inactive: 4.85% [at 7.6 µM]. In the case of `CCC(=O)N1CCc2cc(Br)cc(S(=O)(=O)C3(C(=O)OC)CC3)c21`, the activity change, negative = inhibition is reported as inconclusive: 8.74%. With `Cc1nnc(SCC(=O)N2CCC(c3noc4ccc(F)cc34)CC2)s1` the activity change, negative = inhibition was inconclusive: -7.46%. With `CCN1C(=O)c2cccc3c(S(=O)(=O)Nc4ncccc4C)ccc1c23` the Potency was active: 5.01 µM. In the case of `COC(=O)C[C@](O)(CCCC(C)(C)O)C(=O)O[C@@H]1C(OC)=C[C@]23CCCN2CCc2cc4c(cc2[C@H]13)OCO4`, the activity change, negative = inhibition is reported as inconclusive: -30%. In the case of `COC(=O)c1oc2nc(C)cc(C)c2c1N`, the Potency is reported as inconclusive: 12.6 µM [rising, single point]. With `COc1ccc(N2CCN(Cc3nc4c(c(=O)[nH]c(=O)n4C)n3CCCc3ccccc3)CC2)cc1` the Potency was active: 10 µM. For `COc1ccc(C2CC(c3cc(Br)ccc3F)n3nnnc3N2)cc1` (centres undefined), the activity change, negative = inhibition was inconclusive: -2.27%. With `CCOc1ccc2nc(NC(=O)C(NS(=O)(=O)c3cccs3)C(C)C)sc2c1` (centres undefined) the activity change, negative = inhibition was inconclusive: 105%. For `O=C(COC(=O)c1ccccc1Oc1ccccc1)NC1CCS(=O)(=O)C1` (centres undefined), the activity change, negative = inhibition was inconclusive: 3.56%. In the case of `Cc1ccccc1OCCC(=O)Nc1c(C)n(C)n(-c2ccccc2)c1=O`, the activity change, negative = inhibition is reported as inconclusive: -2.12%. With `Cc1cc(NC(=O)CSc2nnc(C3COc4ccccc4O3)o2)no1` (centres undefined) the activity change, negative = inhibition was inconclusive: 13.8%. With `COc1ccc(C2/C(=C(/O)c3ccccc3)C(=O)C(=O)N2CCN2CCOCC2)c(OC)c1` (centres undefined) the activity change, negative = inhibition was inconclusive: -1.18%. For `CCn1c(N)c(C(=O)Nc2ccccc2C(=O)OC)sc1=S`, the Potency was inconclusive: 6.31 µM [rising, partial curve]. With `O=C(OCC(=O)N1CCCc2ccccc21)C1CCN(S(=O)(=O)c2cccs2)CC1` the activity change, negative = inhibition was “inactive”. For `Cc1nc2nc(C)c(CCC(=O)N3CCOCC3)c(C)n2n1`, the activity change, negative = inhibition was inconclusive: -10.5%. With `COc1ccc(-c2noc(CCC(=O)Nc3cccc(C)c3)n2)cc1` the activity change, negative = inhibition was inconclusive: 4.18%. In the case of `COc1ccc(Oc2ncc3nc(-c4cn(C)c5ccccc45)c(=O)n(CCC#N)c3n2)cc1`, the Potency is reported as inconclusive: 1.58 µM [rising, full curve]. In the case of `C=CCSc1nc(N)c2c(C)c(C)sc2n1`, the Potency is reported as inconclusive: 5.01 µM [rising, single point]. For `CCOC(=O)C1=C(C)NC(=O)N[C@@H]1c1coc2cc(C)cc(C)c2c1=O`, the Potency was inconclusive: 1 µM [falling, single point]. With `COC(=O)c1ccccc1NC(=O)CN(C)S(=O)(=O)c1cc(C)ccc1OC` the Potency was inconclusive: 25.1 µM [rising, single point]. In the case of `O=C(NCc1ccc2[nH]c3c(c2c1)CCCC3)N1CCOCC1`, the Potency is reported as inconclusive: 0.1 µM [falling, single point]. In the case of `CC1(C)N=C(N)N=C(N)N1CCCCc1ccccc1`, the activity change, negative = inhibition is reported as inactive: 0.944% [at 7.6 µM]. For `COc1cccc(Cn2c(=O)c(-c3cn(C)c4ccccc34)nc3cnc(OC)nc32)c1`, the Potency was inconclusive: 6.31 µM [rising, partial curve]. For `Cc1ccccc1-c1nc(NC2CCNCC2)c2ccccc2n1`, the activity change, negative = inhibition was “inactive”. In the case of `COc1ncc2nc(-c3cccs3)c(=O)n(Cc3ccc(F)cc3)c2n1`, the Potency is reported as inconclusive: 3.16 µM [rising, partial curve]. With `COCC(=O)Nc1sc2c(c1C(=O)OC)CCC(C)C2` (centres undefined) the activity change, negative = inhibition was “inactive”. For `COc1ccc(CNC(=O)Nc2cccs2)cc1OC`, the activity change, negative = inhibition was “inactive”. With `CCSc1nnc(-c2ccccc2N)c(=O)[nH]1` the activity change, negative = inhibition was inconclusive: -0.987%. In the case of `OCCO`, the activity change, negative = inhibition is reported as “inactive”. In the case of `Cc1cnc(CNc2ccnc(-c3ccc(N(C)C)cc3)n2)cn1`, the activity change, negative = inhibition is reported as “inactive”.
